The campaign covered roughly 39,000 compounds. About 220 (0.56%) showed activity. The list shows a part of the results.
What follows are compounds tested on Escherichia coli K-12 BW25113 (assay: relative growth (OD600 normalised to plate interquartile mean) (fraction); higher = less growth inhibition, active = 0.2 or less). Settings: 50 µM; LB; incubation time: overnight (16-24 h).
For CCn1cc(C(=O)O)c(=O)c2cc(F)c(N3CCNCC3)nc21, the relative growth was active: 0.049. With C[C@@H]1CN([C@H](C)CO)C(=O)c2cccc(NS(=O)(=O)c3ccc(F)cc3)c2O[C@H]1CN(C)C(=O)Nc1ccc(C(F)(F)F)cc1 the relative growth was inactive: 0.956. C[C@@H]1CN([C@@H](C)CO)C(=O)c2cc(NC(=O)Nc3ccc4c(c3)OCO4)ccc2O[C@@H](C)CCCCO[C@H]1CN(C)Cc1ccc2c(c1)OCO2 was tested, and the relative growth was inactive: 0.909. Cc1noc(C)c1NC(=O)N(C)C[C@H]1Oc2c(NC(=O)C3CC3)cccc2C(=O)N([C@@H](C)CO)C[C@@H]1C was tested, and the relative growth was inactive: 1.01. In the case of C[C@@H]1CN([C@H](C)CO)C(=O)c2cc(NC(=O)Cc3ccccc3)ccc2O[C@@H]1CN(C)S(=O)(=O)c1cn(C)cn1, the relative growth is reported as inactive: 0.967. For CC(C)CC#Cc1cnc2c(c1)C(=O)N([C@H](C)CO)C[C@@H](C)[C@H](CN(C)S(=O)(=O)c1cn(C)cn1)O2, the relative growth was inactive: 1. In the case of C[C@H](CO)N1C[C@H](C)[C@@H](CN(C)C(=O)Nc2ccc(F)cc2)Oc2ccc(NC(=O)Nc3cccc4ccccc34)cc2C1=O, the relative growth is reported as inactive: 1.01. CO[C@@H]1CN(C)C(=O)c2ccc(NC(=O)NC3CCCCC3)cc2OC[C@@H](C)N(CCc2ccccc2)C[C@H]1C was tested, and the relative growth was inactive: 1.03. For COc1ccc(NC(=O)Nc2ccc3c(c2)C(=O)N([C@H](C)CO)C[C@@H](C)[C@@H](CN(C)C(=O)c2ccccc2)OCCCC[C@H](C)O3)cc1, the relative growth was inactive: 1. With C[C@H](CO)N1C[C@H](C)[C@@H](CN(C)CC2CCCCC2)OCCCC[C@H](C)Oc2ccc(NS(=O)(=O)c3cccs3)cc2C1=O the relative growth was inactive: 0.989. In the case of COc1ccc(NC(=O)Nc2cccc3c2O[C@H](CN(C)C(=O)Nc2cccc4ccccc24)[C@H](C)CN([C@H](C)CO)C3=O)cc1, the relative growth is reported as inactive: 0.981. For C[C@H]1CN([C@@H](C)CO)C(=O)Cc2cc(NC(=O)Nc3cccc4ccccc34)ccc2O[C@@H]1CN(C)Cc1ccc(-c2ccccc2)cc1, the relative growth was inactive: 1. O=C(C[C@H]1C=C[C@H](NC(=O)CN2CCOCC2)[C@H](CO)O1)NC1CCCCC1 was tested, and the relative growth was inactive: 0.997. For COc1ccc(S(=O)(=O)Nc2ccc3c(c2)C(=O)N([C@H](C)CO)C[C@@H](C)[C@H](CN(C)Cc2ccc(C(=O)O)cc2)OCCCC[C@@H](C)O3)cc1, the relative growth was inactive: 1. In the case of C[C@@H]1CN([C@@H](C)CO)C(=O)c2cc(NC(=O)Nc3ccc(C(F)(F)F)cc3)ccc2O[C@H]1CN(C)Cc1ccncc1, the relative growth is reported as inactive: 0.948. With C[C@H](CO)N1C[C@H](C)[C@H](CN(C)C(=O)Nc2ccc(C(F)(F)F)cc2)OCCCC[C@H](C)Oc2ccc(NC(=O)Cc3ccccc3)cc2C1=O the relative growth was inactive: 0.995. In the case of CC(=O)N1CCN(c2ncnc3nc[nH]c23)CC1, the relative growth is reported as inactive: 1. In the case of C[C@@H]1CN([C@@H](C)CO)C(=O)c2cc(NS(=O)(=O)c3ccc(Cl)cc3)ccc2O[C@H]1CN(C)S(=O)(=O)c1cn(C)cn1, the relative growth is reported as inactive: 1.01. C[C@H](CO)N1C[C@H](C)[C@H](CN(C)C(=O)Nc2ccc3c(c2)OCO3)Oc2ccc(NS(C)(=O)=O)cc2C1=O was tested, and the relative growth was inactive: 1.02. For C[C@@H]1O[C@H]2Oc3c(-c4ccc(O)cc4)oc4cc(O)c(c(O)c4c3=O)-c3cc(ccc3O)/C=C\C(=O)OC[C@H]3O[C@@H](O[C@H]([C@H]1O)[C@H]2O)[C@H](O)[C@@H](O)[C@@H]3O, the relative growth was inactive: 0.996. For C[C@H](CO)N1C[C@H](C)[C@@H](CN(C)Cc2ccc3c(c2)OCO3)Oc2ncc(C#CCN(C)C)cc2C1=O, the relative growth was inactive: 1. For C[C@@H]1CN([C@@H](C)CO)C(=O)c2cc(NC(=O)CCC(F)(F)F)ccc2O[C@@H](C)CCCCO[C@H]1CN(C)C(=O)CCC(F)(F)F, the relative growth was inactive: 0.991. With C=CCc1ccc(O)c(OC)c1 the relative growth was inactive: 1.1. For CCCCCN1CC=C[C@@]23O[C@@H]4C=CCOC(=O)[C@@H]4[C@H]2C(=O)N(CCCO)[C@@H]3C1=O, the relative growth was inactive: 1.04. In the case of CCS(=O)(=O)N1CC[C@]2(CC1)CN([C@H](CO)c1c2c2ccc(cc2n1C)OC)C(=O)c1ccc(cc1)F, the relative growth is reported as inactive: 1. COc1cccc(CN(C)C[C@@H]2OCc3ccccc3-c3c(n(C)c4ccccc34)C(=O)N([C@H](C)CO)C[C@@H]2C)c1 was tested, and the relative growth was inactive: 1.01. For O=C(C[C@H]1CC[C@@H]2[C@H](COC[C@@H](O)CN2C(=O)Nc2cccc(Cl)c2)O1)NCCCN1CCOCC1, the relative growth was inactive: 0.916. O=C(O)[C@H]1CCS(=O)(=O)C1 was tested, and the relative growth was inactive: 0.938. In the case of C[C@@H]1CN([C@@H](C)CO)C(=O)c2cc(NC(=O)C3CCCCC3)ccc2O[C@H]1CN(C)Cc1ccc(Oc2ccccc2)cc1, the relative growth is reported as inactive: 0.982. Cc1ccc(S(=O)(=O)N2C[C@@H](O)COC[C@@H]3O[C@@H](CC(=O)NCc4ccc5c(c4)OCO5)CC[C@H]32)cc1 was tested, and the relative growth was inactive: 1.03. In the case of C[C@@H]1CCCCO[C@@H](CN(C)Cc2ccc(Cl)c(Cl)c2)[C@H](C)CN([C@H](C)CO)C(=O)c2cc(NS(C)(=O)=O)ccc2O1, the relative growth is reported as inactive: 1.01. In the case of C[C@@H]1CN([C@H](C)CO)C(=O)c2cc(NC(=O)Nc3ccc4c(c3)OCO4)ccc2O[C@H]1CN(C)C(=O)Nc1cccc2ccccc12, the relative growth is reported as inactive: 1.01. For C[C@@H]1CCCCO[C@@H](CN(C)CC2CCCCC2)[C@@H](C)CN([C@H](C)CO)C(=O)c2cc(NC(=O)c3ccncc3)ccc2O1, the relative growth was inactive: 0.984. With CC[C@@]1(O)C[C@H](O[C@H]2C[C@H](N(C)C)[C@H](O[C@H]3C[C@H](O)[C@H](O[C@H]4CCC(=O)[C@H](C)O4)[C@H](C)O3)[C@H](C)O2)c2c(cc3c(c2O)C(=O)c2c(O)cccc2C3=O)[C@H]1C(=O)OC the relative growth was inactive: 1.01. In the case of CCNc1nc(SCC(N)=O)nc(N2CCOCC2)n1, the relative growth is reported as inactive: 1.03. In the case of CO[C@H]1CN(C)C(=O)c2cc(NC(C)=O)ccc2OC[C@H](C)N(S(=O)(=O)c2cn(C)cn2)C[C@H]1C, the relative growth is reported as inactive: 0.981. With Cc1noc(C)c1NC(=O)N(C)C[C@H]1Oc2ccc(NS(=O)(=O)c3cccs3)cc2CC(=O)N([C@H](C)CO)C[C@@H]1C the relative growth was inactive: 0.991.

From the supplement of paper PMC9446081
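Also: static incubation at 37 °C against the wild-type strain, values averaged over two biological replicates.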
